From article PMC12820563 come the findings set out here.

The list shows a part of the results. The list includes weakly bound sequences.

For the assay, the target named is T1, MBP-FoxP3dN (UniProt Q99JB6).
T1 sequence: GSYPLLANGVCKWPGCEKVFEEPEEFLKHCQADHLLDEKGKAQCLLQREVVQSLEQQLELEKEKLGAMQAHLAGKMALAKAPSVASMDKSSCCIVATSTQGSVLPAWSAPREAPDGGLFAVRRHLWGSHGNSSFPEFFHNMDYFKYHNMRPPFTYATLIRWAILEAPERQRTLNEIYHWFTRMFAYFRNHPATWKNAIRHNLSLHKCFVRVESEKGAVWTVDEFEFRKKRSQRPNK
The assay can be described thus: PD-seq (MBP pull-down with sequencing). The following applies: 20 mM Tris-HCl pH 7.5, 100 mM NaCl, 1.5 mM MgCl2, 0.4 uM protein, 0.1 uM dsDNA library, 30 min, room temperature, amylose pull-down; high values mean tight binding; double strand, one strand shown.
For the sequence “GATGATTGTTCTCCCAGCTGATGAATTTTCGTCGTCGAGTAAACAAATTTTCCTAATCTTTCTGTTCAAGCGCCATCTAC”, the binding signal (RPM ratio (pull-down/input)) amounted to 0.408.
Then “GATGATTGTTCTCCCAGCTGATGAATTGTGAGCCTCGAGTAAACAAATTTTCCTAATCTTTCTGTTCAAGCGCCATCTAC”, with 1; and “GATGATTGTTCTCCCAGCTGATGAATTGCATTATTCGAGTAAACAAATTTTCCTAATCTTTCTGTTCAAGCGCCATCTAC”, with 3.3; and “GATGATTGTTCTCCCAGCTGATGAATTTGCACCTTCGAGTAAACAAATTTTCCTAATCTTTCTGTTCAAGCGCCATCTAC”, with 0.765.
Then “GATGATTGTTCTCCCAGCTGATGAATTTGAGTCGTCGAGTAAACAAATTTTCCTAATCTTTCTGTTCAAGCGCCATCTAC”, with 0.775.
For “GATGATTGTTCTCCCAGCTGATGAATTGTGTGGTTCGAGTAAACAAATTTTCCTAATCTTTCTGTTCAAGCGCCATCTAC”, the binding signal (RPM ratio (pull-down/input)) turned out to be 3.74.
Regarding “GATGATTGTTCTCCCAGCTGATGAATTGGCCCTCTCGAGTAAACAAATTTTCCTAATCTTTCTGTTCAAGCGCCATCTAC”, the binding signal (RPM ratio (pull-down/input)) came to 0.358.
Then “GATGATTGTTCTCCCAGCTGATGAATTGTTTGCATCGAGTAAACAAATTTTCCTAATCTTTCTGTTCAAGCGCCATCTAC”, with 6.03; and “GATGATTGTTCTCCCAGCTGATGAATTGGAGAAATCGAGTAAACAAATTTTCCTAATCTTTCTGTTCAAGCGCCATCTAC”, with 0.287; and “GATGATTGTTCTCCCAGCTGATGAATTCAATGAGTCGAGTAAACAAATTTTCCTAATCTTTCTGTTCAAGCGCCATCTAC”, with 0.453.
Then “GATGATTGTTCTCCCAGCTGATGAATTAAACCCCTCGAGTAAACAAATTTTCCTAATCTTTCTGTTCAAGCGCCATCTAC”, with 0.297; and “GATGATTGTTCTCCCAGCTGATGAATTTAGCTGTTCGAGTAAACAAATTTTCCTAATCTTTCTGTTCAAGCGCCATCTAC”, with 1.7.
Then “GATGATTGTTCTCCCAGCTGATGAATTGTCTGTGTCGAGTAAACAAATTTTCCTAATCTTTCTGTTCAAGCGCCATCTAC”, with 0.563; and “GATGATTGTTCTCCCAGCTGATGAATTCTAGATGTCGAGTAAACAAATTTTCCTAATCTTTCTGTTCAAGCGCCATCTAC”, with 0.394.
On to “GATGATTGTTCTCCCAGCTGATGAATTCAAACCATCGAGTAAACAAATTTTCCTAATCTTTCTGTTCAAGCGCCATCTAC”, for which the binding signal (RPM ratio (pull-down/input)) was 0.347.
Take “GATGATTGTTCTCCCAGCTGATGAATTTAAACGTTCGAGTAAACAAATTTTCCTAATCTTTCTGTTCAAGCGCCATCTAC”: the binding signal (RPM ratio (pull-down/input)) is 0.39.
For “GATGATTGTTCTCCCAGCTGATGAATTGATGCACTCGAGTAAACAAATTTTCCTAATCTTTCTGTTCAAGCGCCATCTAC”, the binding signal (RPM ratio (pull-down/input)) came to 5.09.
Then “GATGATTGTTCTCCCAGCTGATGAATTTCGCTTTTCGAGTAAACAAATTTTCCTAATCTTTCTGTTCAAGCGCCATCTAC”, with 2.49.
“GATGATTGTTCTCCCAGCTGATGAATTTACGTCGTCGAGTAAACAAATTTTCCTAATCTTTCTGTTCAAGCGCCATCTAC”: the binding signal (RPM ratio (pull-down/input)) stood at 0.839.
For “GATGATTGTTCTCCCAGCTGATGAATTTAGATGCTCGAGTAAACAAATTTTCCTAATCTTTCTGTTCAAGCGCCATCTAC” the value was 1.4; for “GATGATTGTTCTCCCAGCTGATGAATTAGAGTAATCGAGTAAACAAATTTTCCTAATCTTTCTGTTCAAGCGCCATCTAC”, 0.504; for “GATGATTGTTCTCCCAGCTGATGAATTCATCAATTCGAGTAAACAAATTTTCCTAATCTTTCTGTTCAAGCGCCATCTAC”, 0.425.
For “GATGATTGTTCTCCCAGCTGATGAATTCCTCCTTTCGAGTAAACAAATTTTCCTAATCTTTCTGTTCAAGCGCCATCTAC” the value was 0.257; for “GATGATTGTTCTCCCAGCTGATGAATTAATGGCCTCGAGTAAACAAATTTTCCTAATCTTTCTGTTCAAGCGCCATCTAC”, 0.687; for “GATGATTGTTCTCCCAGCTGATGAATTAGACTGTTCGAGTAAACAAATTTTCCTAATCTTTCTGTTCAAGCGCCATCTAC”, 0.488.
On to “GATGATTGTTCTCCCAGCTGATGAATTTCTATTGTCGAGTAAACAAATTTTCCTAATCTTTCTGTTCAAGCGCCATCTAC”, for which the binding signal (RPM ratio (pull-down/input)) stood at 0.631.
For “GATGATTGTTCTCCCAGCTGATGAATTGCCGCTGTCGAGTAAACAAATTTTCCTAATCTTTCTGTTCAAGCGCCATCTAC” the value was 0.704; for “GATGATTGTTCTCCCAGCTGATGAATTCGTTAATTCGAGTAAACAAATTTTCCTAATCTTTCTGTTCAAGCGCCATCTAC”, 0.481.
For “GATGATTGTTCTCCCAGCTGATGAATTCAATCAATCGAGTAAACAAATTTTCCTAATCTTTCTGTTCAAGCGCCATCTAC” the value was 0.424; for “GATGATTGTTCTCCCAGCTGATGAATTCCCGAAATCGAGTAAACAAATTTTCCTAATCTTTCTGTTCAAGCGCCATCTAC”, 0.229.
As for “GATGATTGTTCTCCCAGCTGATGAATTAGGGGCATCGAGTAAACAAATTTTCCTAATCTTTCTGTTCAAGCGCCATCTAC”, the binding signal (RPM ratio (pull-down/input)) stood at 0.844.
Then “GATGATTGTTCTCCCAGCTGATGAATTTTAGTTGTCGAGTAAACAAATTTTCCTAATCTTTCTGTTCAAGCGCCATCTAC”, with 1.71; and “GATGATTGTTCTCCCAGCTGATGAATTCGACTTCTCGAGTAAACAAATTTTCCTAATCTTTCTGTTCAAGCGCCATCTAC”, with 0.526.
Then “GATGATTGTTCTCCCAGCTGATGAATTCGGTCTCTCGAGTAAACAAATTTTCCTAATCTTTCTGTTCAAGCGCCATCTAC”, with 0.541; and “GATGATTGTTCTCCCAGCTGATGAATTGTCTTGCTCGAGTAAACAAATTTTCCTAATCTTTCTGTTCAAGCGCCATCTAC”, with 0.461; and “GATGATTGTTCTCCCAGCTGATGAATTAATGCAATCGAGTAAACAAATTTTCCTAATCTTTCTGTTCAAGCGCCATCTAC”, with 4.42.
Then “GATGATTGTTCTCCCAGCTGATGAATTGTCCCAATCGAGTAAACAAATTTTCCTAATCTTTCTGTTCAAGCGCCATCTAC”, with 0.382; and “GATGATTGTTCTCCCAGCTGATGAATTTACAGACTCGAGTAAACAAATTTTCCTAATCTTTCTGTTCAAGCGCCATCTAC”, with 0.388.
As to “GATGATTGTTCTCCCAGCTGATGAATTCTACTTATCGAGTAAACAAATTTTCCTAATCTTTCTGTTCAAGCGCCATCTAC”, the binding signal (RPM ratio (pull-down/input)) came to 0.967.
For “GATGATTGTTCTCCCAGCTGATGAATTGGCTATATCGAGTAAACAAATTTTCCTAATCTTTCTGTTCAAGCGCCATCTAC” the value was 0.571.
Then “GATGATTGTTCTCCCAGCTGATGAATTGATGTGGTCGAGTAAACAAATTTTCCTAATCTTTCTGTTCAAGCGCCATCTAC”, with 1.03; and “GATGATTGTTCTCCCAGCTGATGAATTTCAGAATTCGAGTAAACAAATTTTCCTAATCTTTCTGTTCAAGCGCCATCTAC”, with 0.505.
For “GATGATTGTTCTCCCAGCTGATGAATTAGTCATATCGAGTAAACAAATTTTCCTAATCTTTCTGTTCAAGCGCCATCTAC” the value was 0.931.
In the case of “GATGATTGTTCTCCCAGCTGATGAATTTTGGTCCTCGAGTAAACAAATTTTCCTAATCTTTCTGTTCAAGCGCCATCTAC”, the binding signal (RPM ratio (pull-down/input)) was 0.394.
“GATGATTGTTCTCCCAGCTGATGAATTGGCGCGGTCGAGTAAACAAATTTTCCTAATCTTTCTGTTCAAGCGCCATCTAC”: the binding signal (RPM ratio (pull-down/input)) was found to be 0.4.
For the sequence “GATGATTGTTCTCCCAGCTGATGAATTCGGGTCGTCGAGTAAACAAATTTTCCTAATCTTTCTGTTCAAGCGCCATCTAC”, the binding signal (RPM ratio (pull-down/input)) was 0.655.
Consider “GATGATTGTTCTCCCAGCTGATGAATTTTCAGGCTCGAGTAAACAAATTTTCCTAATCTTTCTGTTCAAGCGCCATCTAC”, for which the binding signal (RPM ratio (pull-down/input)) is 0.19.
Then “GATGATTGTTCTCCCAGCTGATGAATTACATTGATCGAGTAAACAAATTTTCCTAATCTTTCTGTTCAAGCGCCATCTAC”, with 0.682.
For “GATGATTGTTCTCCCAGCTGATGAATTAGCAGTCTCGAGTAAACAAATTTTCCTAATCTTTCTGTTCAAGCGCCATCTAC” the value was 0.574; for “GATGATTGTTCTCCCAGCTGATGAATTGCCCTAATCGAGTAAACAAATTTTCCTAATCTTTCTGTTCAAGCGCCATCTAC”, 0.376; for “GATGATTGTTCTCCCAGCTGATGAATTTAACTTATCGAGTAAACAAATTTTCCTAATCTTTCTGTTCAAGCGCCATCTAC”, 0.625.
Then “GATGATTGTTCTCCCAGCTGATGAATTGCCTCAGTCGAGTAAACAAATTTTCCTAATCTTTCTGTTCAAGCGCCATCTAC”, with 0.562; and “GATGATTGTTCTCCCAGCTGATGAATTACGTCGATCGAGTAAACAAATTTTCCTAATCTTTCTGTTCAAGCGCCATCTAC”, with 0.397.
In the case of “GATGATTGTTCTCCCAGCTGATGAATTGCAGGGCTCGAGTAAACAAATTTTCCTAATCTTTCTGTTCAAGCGCCATCTAC”, the binding signal (RPM ratio (pull-down/input)) was found to be 0.493.
For “GATGATTGTTCTCCCAGCTGATGAATTCAAGATGTCGAGTAAACAAATTTTCCTAATCTTTCTGTTCAAGCGCCATCTAC” the value was 0.291; for “GATGATTGTTCTCCCAGCTGATGAATTCCCTCCCTCGAGTAAACAAATTTTCCTAATCTTTCTGTTCAAGCGCCATCTAC”, 0.24.
For “GATGATTGTTCTCCCAGCTGATGAATTGCAAAGATCGAGTAAACAAATTTTCCTAATCTTTCTGTTCAAGCGCCATCTAC” the value was 0.498; for “GATGATTGTTCTCCCAGCTGATGAATTTTGCCAATCGAGTAAACAAATTTTCCTAATCTTTCTGTTCAAGCGCCATCTAC”, 0.864.
For “GATGATTGTTCTCCCAGCTGATGAATTGTCACTTTCGAGTAAACAAATTTTCCTAATCTTTCTGTTCAAGCGCCATCTAC” the value was 0.742; for “GATGATTGTTCTCCCAGCTGATGAATTTTTGAACTCGAGTAAACAAATTTTCCTAATCTTTCTGTTCAAGCGCCATCTAC”, 0.235; for “GATGATTGTTCTCCCAGCTGATGAATTCCCTATCTCGAGTAAACAAATTTTCCTAATCTTTCTGTTCAAGCGCCATCTAC”, 0.3.
Consider “GATGATTGTTCTCCCAGCTGATGAATTTTCACCCTCGAGTAAACAAATTTTCCTAATCTTTCTGTTCAAGCGCCATCTAC”, for which the binding signal (RPM ratio (pull-down/input)) turned out to be 0.233.
“GATGATTGTTCTCCCAGCTGATGAATTGTAAATGTCGAGTAAACAAATTTTCCTAATCTTTCTGTTCAAGCGCCATCTAC”: the binding signal (RPM ratio (pull-down/input)) was 0.55.
